According to the supplement of paper PMC7125110:
± gives the standard error. Variants at the background level are over-represented here.

B1: glmS ribozyme (parent)
chain: AUAAAAGCGCCAGAACUACAGAAAUGUAGUUGACGAGGAGGAGGUUUAUCGAAUUUUCGGCGGAUGCCUCCAAA

Experiments:
Conditions in all cases: with glucosamine-6-phosphate
glucosamine-6-phosphate [1] = variants of: B1; assay: self-cleavage kobs at 640 uM GlcN6P; higher = faster cleavage; RNA array
In short: (§1)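 Barcoded ribozyme variants were transcribed in situ on sequenced MiSeq chips by E. coli RNA polymerase. At 37 °C, a hybridised Cy3 probe tracked them while glucosamine-6-phosphate (40 μM to 10 mM) in HEPES/KCl/Mg(OAc)2 buffer flowed in and tiles were imaged over ~14 h. Per-tile medians of signals normalised to baseline and to non-cleaving reference variants were fit to one- or two-exponential decays, giving kobs. kcat and KM came from weighted Michaelis–Menten fits across concentrations.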

glucosamine-6-phosphate [2] = variants of: B1; assay: self-cleavage kobs at 2500 uM GlcN6P; higher = faster cleavage; RNA array
In short: as §1

glucosamine-6-phosphate [3] = variants of: B1; assay: self-cleavage kobs at 160 uM GlcN6P; higher = faster cleavage; RNA array
In short: as §1

glucosamine-6-phosphate [4] = variants of: B1; assay: self-cleavage kobs at 10000 uM GlcN6P; higher = faster cleavage; RNA array
In short: as §1

Variant	self-cleavage kobs at 640 uM GlcN6P (glucosamine-6-phosphate [1]) [s⁻¹]	self-cleavage kobs at 2500 uM GlcN6P (glucosamine-6-phosphate [2]) [s⁻¹]	self-cleavage kobs at 160 uM GlcN6P (glucosamine-6-phosphate [3]) [s⁻¹]	self-cleavage kobs at 10000 uM GlcN6P (glucosamine-6-phosphate [4]) [s⁻¹]
A1U U2G A3G C34A A42U G62A	< 1e-05	< 1e-05		
U2C C16G A53C	0.000137 ± 1.9e-05	0.000285 ± 4.6e-05	4.66e-05 ± 1.6e-05	
A6C A12G U54G	< 1e-05	< 1e-05		
A6C A15G A52U C67U	< 1e-05			
A6C A48U U49G	< 1e-05	< 1e-05	< 1e-05	
A6C A53U U57C	< 1e-05			
A6C C8A A12C C50A	< 1e-05			
A6C C10A G35A C58G C70G	0.000553 ± 0.00014	0.000134 ± 4.9e-05	4.89e-05 ± 2.3e-05	
A6C C11A U55C	< 1e-05	< 1e-05		
A6C C11G A36G G41U U55C	< 1e-05	< 1e-05		< 1e-05
A6C C16U G38U U47C G63A	< 1e-05	< 1e-05		
A6C C50U	< 1e-05	< 1e-05	< 1e-05	< 1e-05
A6C G7A G62A C71G	< 1e-05			
A6C G7C U45A	< 1e-05			
A6C G13C G62C	< 1e-05			
A6C G13U G51U A52C A64U	< 1e-05	< 1e-05	< 1e-05	
A6C G37U U49A	< 1e-05			< 1e-05
A6C G38C A53G	< 1e-05			
A6C G38C U49C C68U C70U	< 1e-05		< 1e-05	
A6C G38U U54C	< 1e-05			
A6C G44C C70G	< 1e-05			
A6C G44U U65G	< 1e-05	< 1e-05		
A6C U30A G35U U45G A64U	< 1e-05			
A6C U45C G51C U65G C70G	< 1e-05	< 1e-05		

Variant	self-cleavage kobs at 640 uM GlcN6P (glucosamine-6-phosphate [1]) [s⁻¹]	self-cleavage kobs at 2500 uM GlcN6P (glucosamine-6-phosphate [2]) [s⁻¹]	self-cleavage kobs at 160 uM GlcN6P (glucosamine-6-phosphate [3]) [s⁻¹]	self-cleavage kobs at 10000 uM GlcN6P (glucosamine-6-phosphate [4]) [s⁻¹]
A6C U49A C50U	< 1e-05		< 1e-05	
A6G A12G A15G U49A C70G	< 1e-05			
A6G A14C U30A C68A	< 1e-05			
A6G A36U G60C C68G	< 1e-05			
A6G A39U	8.14e-05 ± 1.2e-05	0.000176 ± 2.3e-05	2.95e-05 ± 1.1e-05	0.000239 ± 3.2e-05
A6G A52U A64G C67U	< 1e-05	< 1e-05		
A6G A53C G63A A64G	< 1e-05		< 1e-05	
A6G C11A G59U G60C	< 1e-05			
A6G C11G G41U U46A G63U	< 1e-05		< 1e-05	< 1e-05
A6G C11U G43C	< 1e-05		< 1e-05	
A6G C61G C71G	7.45e-05 ± 2.4e-05			
A6G G7A A36G	< 1e-05	< 1e-05		
A6G G7C C10U G35U G40U G60A C70G	< 1e-05	< 1e-05	< 1e-05	
A6G G7U G35C G37A	< 1e-05		< 1e-05	
A6G G13A G51U U56C	< 1e-05	< 1e-05	< 1e-05	
A6G G29U A36C	< 1e-05			
A6G G32C U56G	< 1e-05	< 1e-05		
A6G G35U A42U	< 1e-05			
A6G G37U G60C	< 1e-05	< 1e-05		
A6G G40U U47C C67G	< 1e-05		< 1e-05	
A6G G40U U54A	< 1e-05		< 1e-05	
A6G G63C C71U	< 1e-05	< 1e-05	< 1e-05	
A6G U31C C34U G37A G38C A48G C50A	< 1e-05		< 1e-05	
A6G U31G	4.67e-05 ± 9.4e-06			

Variant	self-cleavage kobs at 640 uM GlcN6P (glucosamine-6-phosphate [1]) [s⁻¹]	self-cleavage kobs at 2500 uM GlcN6P (glucosamine-6-phosphate [2]) [s⁻¹]	self-cleavage kobs at 160 uM GlcN6P (glucosamine-6-phosphate [3]) [s⁻¹]	self-cleavage kobs at 10000 uM GlcN6P (glucosamine-6-phosphate [4]) [s⁻¹]
A6G U49C G63A	< 1e-05	< 1e-05	< 1e-05	
A6G U49C U55A	< 1e-05	< 1e-05		
A6G U55G G59A	< 1e-05			
A6U A12U A52C U65C	< 1e-05	< 1e-05	< 1e-05	
A6U A14G G51C G59C	< 1e-05			
A6U A33C G43A	< 1e-05	< 1e-05		
A6U A52U A53G	< 1e-05	< 1e-05		
A6U C34U C50A	< 1e-05	< 1e-05		
A6U C50G U55A C71U	0.00151 ± 0.00047			
A6U G7U	< 1e-05	< 1e-05	< 1e-05	< 1e-05
A6U G9A C61A C67A	< 1e-05			
A6U G9C A52U C67A C70U	< 1e-05			
A6U G9U G51U C58A	< 1e-05		< 1e-05	
A6U G9U U31G C67G	< 1e-05			
A6U G29U G32U A42G U47A C71G	< 1e-05	< 1e-05		
A6U G35A G38U U65G	< 1e-05	< 1e-05		
A6U G38A A52U G60C	< 1e-05			
A6U G44U U55C	< 1e-05	< 1e-05	< 1e-05	
A6U G51U A52G C61A	< 1e-05	< 1e-05		
A6U G59U	< 1e-05	< 1e-05	< 1e-05	< 1e-05
A6U U30G U31G G32U A64C	< 1e-05	< 1e-05	< 1e-05	
A6U U47C G60A	< 1e-05			
G7A A12U U47A C61A A64C	< 1e-05	< 1e-05	< 1e-05	
G7A A12U U47A G59C	< 1e-05			< 1e-05

Variant	self-cleavage kobs at 640 uM GlcN6P (glucosamine-6-phosphate [1]) [s⁻¹]	self-cleavage kobs at 2500 uM GlcN6P (glucosamine-6-phosphate [2]) [s⁻¹]	self-cleavage kobs at 160 uM GlcN6P (glucosamine-6-phosphate [3]) [s⁻¹]	self-cleavage kobs at 10000 uM GlcN6P (glucosamine-6-phosphate [4]) [s⁻¹]
G7A A15C G38C A42U U65G C71G	< 1e-05		< 1e-05	
G7A A33C A39G G62C	< 1e-05			
G7A A42C A52G U55A	< 1e-05			
G7A A42U C71A	< 1e-05	< 1e-05		
G7A A52U C61G	< 1e-05	< 1e-05	< 1e-05	
G7A C11G U46G U54G A64U	< 1e-05	< 1e-05		
G7A C16U U49C C61U	< 1e-05	< 1e-05		
G7A C50A G51A	< 1e-05	< 1e-05	< 1e-05	
G7A G29C G38C	< 1e-05	< 1e-05		
G7A G29C G63U	< 1e-05			
G7A G29U A52U	< 1e-05			
G7A G32U	< 1e-05	< 1e-05	< 1e-05	< 1e-05
G7A G37A	< 1e-05		< 1e-05	< 1e-05
G7A G40C A48G G51U U56C	< 1e-05			
G7A G43C C71U	< 1e-05		< 1e-05	
G7A G44A A48C	< 1e-05	< 1e-05		
G7A G59U	< 1e-05		< 1e-05	< 1e-05
G7A U30C C58U	< 1e-05			
G7A U46A	< 1e-05		< 1e-05	
G7A U65G	< 1e-05	< 1e-05	< 1e-05	< 1e-05
G7C A14C A52U	< 1e-05	< 1e-05		
G7C A24U U46A C68U	< 1e-05		< 1e-05	< 1e-05
G7C C8G A15G U54C	< 1e-05	< 1e-05		
G7C C8U C16U G38A C67G	< 1e-05		< 1e-05	

Variant	self-cleavage kobs at 640 uM GlcN6P (glucosamine-6-phosphate [1]) [s⁻¹]	self-cleavage kobs at 2500 uM GlcN6P (glucosamine-6-phosphate [2]) [s⁻¹]	self-cleavage kobs at 160 uM GlcN6P (glucosamine-6-phosphate [3]) [s⁻¹]	self-cleavage kobs at 10000 uM GlcN6P (glucosamine-6-phosphate [4]) [s⁻¹]
G7C C10A G13A G37A U45A	< 1e-05	< 1e-05		
G7C C10A G66U	< 1e-05			
G7C C34U A42U U54C	< 1e-05	< 1e-05		
G7C C61A	< 1e-05		< 1e-05	
G7C C68G C70G	< 1e-05	< 1e-05	< 1e-05	
G7C C68U	< 1e-05	< 1e-05	< 1e-05	< 1e-05
G7C C71A	< 1e-05			< 1e-05
G7C G9C C11U	< 1e-05	< 1e-05		
G7C G9U A14C G44A U45G U54A G62U	< 1e-05	< 1e-05		
G7C G13A G44C	< 1e-05	< 1e-05		
G7C G35A G60A	< 1e-05			
G7C G38C G66A	< 1e-05	< 1e-05		
G7C U31A A52C	< 1e-05		< 1e-05	
G7C U45G U56G	< 1e-05			< 1e-05
G7C U54C A64C	< 1e-05	< 1e-05		
G7C U55C G60C	< 1e-05		< 1e-05	
G7U A14G G40U	< 1e-05	< 1e-05		
G7U A14G U45G U47C C70G	< 1e-05			
G7U A15U G51U C61U C67G	< 1e-05		< 1e-05	
G7U A36G G40A A53U	< 1e-05	< 1e-05		
G7U A36G U55C G62A A64U C70G	< 1e-05	< 1e-05		
G7U A42G G43A G44U	< 1e-05		< 1e-05	
G7U A53C	< 1e-05		< 1e-05	< 1e-05
G7U A64C U65G	< 1e-05			< 1e-05
